Assay results published in US20250230211A1 (NANTCELL, published 2025).

T1: human CTLA4 (human, UniProt P16410 36-161)
T1 sequence (looked up): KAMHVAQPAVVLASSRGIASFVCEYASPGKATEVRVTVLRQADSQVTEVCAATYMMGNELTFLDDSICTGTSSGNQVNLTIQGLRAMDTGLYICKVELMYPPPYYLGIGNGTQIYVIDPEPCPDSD

T2: IL-2Rβ (UniProt P14784 27-240, limits assumed)
T2 construct: also called IL2RB
T2 sequence (looked up): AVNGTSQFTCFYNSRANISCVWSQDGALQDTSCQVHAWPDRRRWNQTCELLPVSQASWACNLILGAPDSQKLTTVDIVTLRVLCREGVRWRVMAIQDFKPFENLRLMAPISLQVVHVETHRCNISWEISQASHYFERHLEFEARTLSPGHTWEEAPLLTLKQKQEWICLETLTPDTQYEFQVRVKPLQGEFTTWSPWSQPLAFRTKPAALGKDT


How the values were obtained:
Experiment in all cases: SPR, fusion protein captured by anti-human IgG Fc, analyte by OneStep injection at 40 nM and 20 nM
[1] = biological target: T1, human CTLA4
Procedure: (§1) Surface plasmon resonance (SPR) studies were conducted with the purified fusion proteins to assess their binding affinities to relevant targets. The SPR kinetic assay was performed by immobilizing rabbit α-human IgG Fc antibodies (Thermo) on a PCH sensor (Sartorius) as the capture molecule. All molecules of interest were then captured on the sensor surface by α-IgG1-Fc and Fc domain interaction. Binding kinetics against IL-2Rβ, human CTLA4, and murine CTLA4 were determined by OneStep injection at 40 nM and 20 nM of each analyte. […] The αCTLA4-scFv has higher affinity to CTLA4 than when the binding domain is in IgG form.

[2] = biological target: T3, murine CTLA4 (murine, UniProt P09793 36-161, limits assumed)
T3 construct: also called Mouse CTLA4
Procedure: as §1

[3] = biological target: T2, IL-2Rβ
Procedure: as §1

Kd [1] [nM]	Kd [2] [nM]	Kd [3] [nM]	Binder
1.2 to 1.3	2 to 3.4	1.7	IL-15/αCTLA4 (N-844-4) (other) heavy: ITCPPPMSVEHADIWVKSYSLYSRERYICNSGFKRKAGTSSLTECVLNKATNVAHWTTPSLKCIRGGGGSGGGGSGGGGSEVQLVESGGGLVQPGGSLRLSCAASGFTFTSYSMHWVRQAPGKGLEWVSGISGSGRSTSYADSVKGRFTISRDNSKNTLYLQMNSLRAEDTAVYYCARDLMAFNLVRAGGFDVWGQGTLVTVSS[sequence of human IgG1 constant region omitted] light: DIQMTQSPSSLSASVGDRVTITCQASQDISNYLNWYQQKPGKAPKLLIYDASNLETGVPSRFSGSGSGTDFTFTISSLQPEDIATYYCQQGDAWPWTFGQGTKVEIKRTVAAPSVFIFPPSDEQLKSGTASVVCLLNNFYPREAKVQWKVDNALQSGNSQESVTEQDSKDSTYSLSSTLTLSKADYEKHKVYACEVTHQGLSSPVTKSFNRGEC [sequence of about 120 residues omitted]
1.2 to 1.4	2.1 to 2.6	1.9	αCTLA4/IL-15 (N-844-5) (other) heavy: EVQLVESGGGLVQPGGSLRLSCAASGFTFTSYSMHWVRQAPGKGLEWVSGISGSGRSTSYADSVKGRFTISRDNSKNTLYLQMNSLRAEDTAVYYCARDLMAFNLVRAGGFDVWGQGTLVTVSS[sequence of human IgG1 constant region omitted]GGGGSGGGGSGGGGSITCPPPMSVEHADIWVKSYSLYSRERYICNSGFKRKAGTSSLTECVLNKATNVAHWTTPSLKCIR light: DIQMTQSPSSLSASVGDRVTITCQASQDISNYLNWYQQKPGKAPKLLIYDASNLETGVPSRFSGSGSGTDFTFTISSLQPEDIATYYCQQGDAWPWTFGQGTKVEIKRTVAAPSVFIFPPSDEQLKSGTASVVCLLNNFYPREAKVQWKVDNALQSGNSQESVTEQDSKDSTYSLSSTLTLSKADYEKHKVYACEVTHQGLSSPVTKSFNRGEC [sequence of about 120 residues omitted]
